Measured values published in PubChem BioAssay AID1030 (National Center for Advancing Translational Sciences (NCATS), 2008).
About 16,000 (7.3%) of roughly 220,000 compounds were called active. Inconclusive results, whose numbers are uncertain, are shown with a selection of clear calls. Calls come from the whole dose curve; as a rule, active = well fitted inhibition curve with a large enough effect (not every such curve was filed as active); inconclusive = small, poorly fitted or top-dose-only effect, or another doubt; inactive = no such curve, though single readings can be large or run the other way. No potency is given beside an inconclusive call; the fits are too rough.

These molecules were tested against Aldehyde dehydrogenase 1A1 (Homo sapiens) (UniProt P00352) (assay: qHTS Assay for Inhibitors of Aldehyde Dehydrogenase 1 (ALDH1A1)). Conditions: Purified ALDH1A1, NADH fluorescence, propionaldehyde substrate; series mostly up to 75.3 µM.
Potency is the fitted concentration of half-maximal effect; tags give direction and shape of the fitted curve.
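Throughout, for activity, negative = inhibition: plate controls were no enzyme wells and a reference inhibitor.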

Chain of UniProt P00352 (P00352 whole entry, looked up): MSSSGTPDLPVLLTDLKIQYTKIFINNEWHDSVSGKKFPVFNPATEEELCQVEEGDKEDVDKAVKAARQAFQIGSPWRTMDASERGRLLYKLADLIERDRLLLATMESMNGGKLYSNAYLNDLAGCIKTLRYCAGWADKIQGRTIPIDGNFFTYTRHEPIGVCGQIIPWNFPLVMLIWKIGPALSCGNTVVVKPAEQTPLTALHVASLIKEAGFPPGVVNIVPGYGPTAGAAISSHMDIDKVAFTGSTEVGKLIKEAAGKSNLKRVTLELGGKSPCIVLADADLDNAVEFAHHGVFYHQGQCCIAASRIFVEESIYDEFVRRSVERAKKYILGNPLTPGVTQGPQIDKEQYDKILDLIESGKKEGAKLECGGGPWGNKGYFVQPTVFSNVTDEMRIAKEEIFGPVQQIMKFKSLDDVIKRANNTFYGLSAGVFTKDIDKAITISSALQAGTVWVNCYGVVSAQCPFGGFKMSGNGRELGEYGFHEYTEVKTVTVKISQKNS

Compound	Potency	activity, negative = inhibition
Cc1cc(C)n(C(=O)CSc2nc3ccccc3o2)n1	inconclusive [inhibitor, single point]	
CCC1(C)Cc2c(sc3[nH]c(=O)[nH]c(=O)c23)CS1 (stereo not drawn)	inconclusive [inhibitor, partial curve]	
COc1ccc(C2c3c(-c4cc(Cl)c(C)cc4O)n[nH]c3C(=O)N2Cc2cccnc2)cc1OC (stereo not drawn)	inactive	
CCN(CC)c1nc2nonc2nc1N(CC)CC	inactive	
O=C(COc1ccc(S(=O)(=O)N2CCCC2)cc1Cl)N1CCN(c2ccccc2)CC1	active: 17.8 µM	
COc1ccc(CCN2C(=O)c3cccc4c(C(=O)N5CCCCC5)ccc(c34)C2=O)cc1OC	active: 10 µM	
CC(C)OCCCNC(=O)C1CCN(S(=O)(=O)N2CCCCC2)CC1	inconclusive [inhibitor, single point]	
C=CCn1c(-c2cc(-c3ccccc3)sc2N)n[nH]c1=S	inconclusive [inhibitor, partial curve]	
COc1ccc(Br)cc1C(=O)Nc1cc(C)cc(C)c1	inactive	
Cc1ccc(C)c(N2CCN(C(=O)c3cc4ccccc4oc3=O)CC2)c1	inactive	
O=C(NC1CCCCC1)c1sc(=S)n2c1[nH]c(=O)c1ccccc12	active: 3.16 µM	
O=C(CN1CCCN(Cc2ccc(F)cc2Cl)C1=O)NC1CCCCCCC1	inconclusive [inhibitor, single point]	
Cc1cccc(/C=C2/SC(=O)N(Cc3ccccc3Cl)C2=O)n1	active: 3.16 µM	
CCCOc1c(Br)cc(/C=N/O)cc1OC	inconclusive [inhibitor, single point]	
COc1ccc(/C=C\C(=O)c2c(O)ccc3c(C)cc(=O)oc23)cc1OC	inactive	
O=c1[nH]c(C(F)(F)F)nc2c1nnn2Cc1ccccc1F	inactive	
CCN(CC)CCCNc1cc2n(c(=O)n1)CCc1cc(OC)c(OC)cc1-2	inconclusive [inhibitor, partial curve]	
CCn1c(COc2cccc(OC)c2)nnc1SCC(=O)Nc1cccc(OC)c1	inactive	
CC1(C)CC(=O)C2=C(C1)Nc1[nH]c(=S)[nH]c(=O)c1C2c1ccccc1 (stereo not drawn)	inconclusive [inhibitor, partial curve]	
NC(=O)C1=C[C@@H](c2ccc(C(F)(F)F)cc2)C[C@@H](OCCCCO)O1	inactive	
COc1cc(C(=O)Nc2ccc(N(C)C)cc2)cc(OC)c1OC	inconclusive [inhibitor, single point]	
Cc1cc(=O)oc2cc(OCC(=O)OCC(=O)N(CCC#N)c3ccccc3)ccc12	inconclusive [inhibitor, partial curve]	
CCn1c(=NC(=O)c2ccc(N3C(=O)CCC3=O)cc2)sc2c(OC)ccc(OC)c21	inconclusive [inhibitor, single point]	
Cc1cc(N2CCOCC2)nc(SCc2ccc(Cl)cc2Cl)n1	inactive	
N#Cc1c(-c2ccccc2F)cc(C2CC2)nc1SCC(=O)c1cccs1	inconclusive [inhibitor, single point]	

Compound	Potency	activity, negative = inhibition
COc1ccc(Nc2ccccc2N)cc1	inconclusive [inhibitor, partial curve]	
Cc1cccc(NC(=O)c2ccc(CN3CCN(Cc4ccccc4)CC3)cc2)c1	inconclusive [inhibitor, single point]	
COCCNC(=O)c1cnn2c(C(F)F)cc(-c3ccc(C)cc3)nc12	inconclusive [inhibitor, partial curve]	
CC(C)(O)[C@@H]1Cc2c(ccc3ccc(=O)oc23)O1	inconclusive [inhibitor, partial curve]	
CNC(=O)/C(C#N)=C/c1cc(C)n(-c2ccc(N3CCOCC3)cc2)c1C	inconclusive [inhibitor, partial curve]	
CC(=O)c1ccc(Nc2c(C)n(C)n(-c3ccccc3)c2=O)cc1	inactive	
COc1ccc(-c2ccc(-c3cc(=O)oc4cc(C)cc(C)c34)cc2)cc1	inconclusive [inhibitor, partial curve]	
COC(=O)C(C(=O)OC)C1O[C@@]23COCCC2(C)C3c2ccccc21 (stereo partly drawn)		inactive: -4.55% [at 13.5 µM]
Cc1ccc(S(=O)(=O)Oc2ccc(/C=C(/NC(=O)c3ccccc3)C(=O)O)cc2)cc1	active: 12.6 µM	
COc1ccc(N=C2NC(=O)/C(=C\C=C\c3ccco3)S2)cc1	active: 11.2 µM	
O=C1CC(c2ccccc2Cl)CC(O)=C1C=Nc1ccccc1 (stereo not drawn)	inconclusive [inhibitor, single point]	
Cc1cccc(N(C)C(=O)COc2cc(=O)n(C)c3ccccc23)c1	inactive	
COc1ccccc1Cn1c(=O)c2ccccc2n2c(Sc3ncnc4sccc34)nnc12	inconclusive [inhibitor, partial curve]	
O=C(N/N=C/C1CC=CCC1)c1cc(Br)ccc1O (stereo not drawn)	inconclusive [inhibitor, single point]	
Cc1cccc(/C(N)=N/OC(=O)C23CC4CC(CC(C4)C2)C3)c1	inactive	
COc1cc2c(cc1NC(=O)COc1ccccc1OC)oc1ccccc12	inconclusive [inhibitor, partial curve]	
Cc1ccc(C)c(NC(=S)NC(NC(=O)Cc2ccccc2)C(Cl)(Cl)Cl)c1 (stereo not drawn)	inconclusive [inhibitor, partial curve]	
COc1ccc(-c2nc(CSCC(=O)N3CCN(c4cccc(C)c4)C(C)C3)c(C)o2)cc1OC (stereo not drawn)	inconclusive [inhibitor, partial curve]	
CCOC(=O)CNC(c1ccccc1)c1cc(Br)ccc1NC(=O)OCC (stereo not drawn)	inactive	
CCN1c2ccccc2-c2nc3ccccc3n2C1c1ccco1 (stereo not drawn)	inconclusive [inhibitor, partial curve]	
CC(=O)N(Cc1cccs1)Cc1cc2ccc(C)c(C)c2nc1Cl	active: 17.8 µM	
O=[N+]([O-])c1ccc(N/N=C/c2ccc(O)c(O)c2O)c(S(=O)(=O)N2CCOCC2)c1	active: 3.55 µM	
CCOc1ccc(C(c2c(NC(=O)c3ccccc3)sc(C)c2C)N2CCN(CCO)CC2)cc1 (stereo not drawn)	inconclusive [inhibitor, partial curve]	
Cc1ccc(NC(=O)C2CCN(S(=O)(=O)c3cccs3)CC2)cc1	inconclusive [inhibitor, single point]	
COc1ccc(CN=C2NN=C(c3ccc(Cl)cc3)CS2)cc1	inconclusive [inhibitor, single point]	

Compound	Potency	activity, negative = inhibition
Cc1ccc(NC(=O)CC(O)(C(F)(F)F)C(F)(F)F)c(Br)c1	inactive	
CC(=O)Oc1cccc(N2C(=O)c3ccc(C(=O)Nc4c[nH]c(=O)[nH]c4=O)cc3C2=O)c1	inactive	
O=C(Oc1ccc(-c2cnc3ccccc3n2)cc1)c1ccc(Br)o1	inconclusive [inhibitor, single point]	
Cc1ccc(-n2c(=O)c(C#N)cc3c(=O)n4cccc(C)c4nc32)cc1	inconclusive [inhibitor, full curve]	
Cc1ccc(CNC(=O)c2cc3c(=O)n4cccc(C)c4nc3n(CC3CCCO3)c2=N)cc1 (stereo not drawn)	inconclusive [inhibitor, partial curve]	
COc1ccc(/C=C/C(=O)NC(=S)NCCc2ccc(OC)c(OC)c2)cc1	inactive	
O=C(Cc1cn2ccsc2n1)NCc1ccccc1	inconclusive [inhibitor, single point]	
CCO[Si](CCCN)(OCC)OCC	inactive	
COc1ccccc1N1CCN(C(c2ccccn2)c2nnnn2C2CCCCC2)CC1 (stereo not drawn)	inactive	
CC(C)(C)OC(=O)N1CCC[C@H]1C(=O)N/N=C/c1cccc2nccnc12	inactive	
CCCCS(=O)(=O)N1CCc2nc(-c3ccccc3)c3c(c2C1)CO[C@@H](C)C3		inactive: 19.2% [at 13.5 µM]
CC(=O)Oc1ccc(N(C(C)=O)S(=O)(=O)c2cccs2)c2ccccc12	active: 5.01 µM	
CCOC(=O)c1c(NC(=O)c2cccs2)sc(C)c1C	inconclusive [inhibitor, partial curve]	
CC(C)Cn1c(SCC(=O)NC2CCCc3ccccc32)nc(O)cc1=O (stereo not drawn)	inconclusive [inhibitor, single point]	
COc1cccc(C2C(C#N)=C(C)NC3=C2C(=O)CC(C)(C)C3)c1 (stereo not drawn)	inconclusive [inhibitor, partial curve]	
O=C(NNC1CC(=O)N(c2cccc(Cl)c2)C1=O)c1cccs1 (stereo not drawn)	inconclusive [inhibitor, single point]	
O=S(=O)(c1cccc(-c2cn3cccnc3n2)c1)N1CCCCCC1	inconclusive [inhibitor, partial curve]	
CCn1c2ccccc2c2cc(NC(=O)COc3ccc(OC)cc3)ccc21	inactive	
Oc1ccc2ccccc2c1/C=N/c1nc2c(s1)CCCC2	inconclusive [inhibitor, single point]	
COc1ccc(Cl)cc1N(C)C(=O)CCNC(=O)Cn1cnc2ccccc2c1=O	inactive	
COc1ccc2[nH]c(-c3ccc(C)cc3)cc(=O)c2c1	inconclusive [inhibitor, single point]	
Cc1ccc(-n2c(SCC(=O)NC3CCCCC3)nc3c(c2=O)SCC3)cc1	inactive	
Cc1csc(NC(=O)C2CCCCC2C(=O)O)n1 (stereo not drawn)	inconclusive [inhibitor, single point]	
